The labels stand for the following.
T1: RBFOX1 RRM RbFoxmut (Fox-RRM*) (Homo sapiens, UniProt Q9NWB1 109-208, R118D;E147R;N151S;E152T)
T1 sequence: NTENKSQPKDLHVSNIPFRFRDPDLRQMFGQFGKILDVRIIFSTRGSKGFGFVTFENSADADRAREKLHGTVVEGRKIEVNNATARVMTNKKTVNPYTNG

B1: AUUUGAA (DNA:RNA)
RNA: GGGAGACCGGAAUUCAGAUUGUCCAUUUGAAUUAAAUCCCGUCGUAGCCACCA
DNA 1: CAATCTGAATTCCGGTCTCCC
DNA 2: TGGTGGCTACGACGGGATT
B2: GUGCACG (DNA:RNA)
RNA: B1 RNA with A25G, U27G, U28C, G29A, A30C, A31G
DNA 1: CAATCTGAATTCCGGTCTCCC
DNA 2: TGGTGGCTACGACGGGATT
B3: AAAUCCU (DNA:RNA)
RNA: B1 RNA with U26A, U27A, G29C, A30C, A31U
DNA 1: CAATCTGAATTCCGGTCTCCC
DNA 2: TGGTGGCTACGACGGGATT
B4: CCCGUCA (DNA:RNA)
RNA: B1 RNA with A25C, U26C, U27C, U28G, G29U, A30C
DNA 1: CAATCTGAATTCCGGTCTCCC
DNA 2: TGGTGGCTACGACGGGATT
B5: GCCAUGG (DNA:RNA)
RNA: GGGAGACCGGAAUUCAGAUUGUCCGCCAUGGUUAAAUCCCGUCGUAGCCACCA
DNA 1: CAATCTGAATTCCGGTCTCCC
DNA 2: TGGTGGCTACGACGGGATT
B6: AUCGAGG (DNA:RNA)
RNA: B5 RNA with G25A, C26U, A28G, U29A
DNA 1: CAATCTGAATTCCGGTCTCCC
DNA 2: TGGTGGCTACGACGGGATT
B7: CUGCUCU (DNA:RNA)
RNA: B1 RNA with A25C, U27G, U28C, G29U, A30C, A31U
DNA 1: CAATCTGAATTCCGGTCTCCC
DNA 2: TGGTGGCTACGACGGGATT
B8: UAAAGUU (DNA:RNA)
RNA: B1 RNA with A25U, U26A, U27A, U28A, A30U, A31U
DNA 1: CAATCTGAATTCCGGTCTCCC
DNA 2: TGGTGGCTACGACGGGATT
B9: AAUUGCA (DNA:RNA)
RNA: B1 RNA with U26A, A30C
DNA 1: CAATCTGAATTCCGGTCTCCC
DNA 2: TGGTGGCTACGACGGGATT
B10: GAGCGCG (DNA:RNA)
RNA: B5 RNA with C26A, C27G, A28C, U29G, G30C
DNA 1: CAATCTGAATTCCGGTCTCCC
DNA 2: TGGTGGCTACGACGGGATT
B11: ACCCAAG (DNA:RNA)
RNA: B5 RNA with G25A, A28C, U29A, G30A
DNA 1: CAATCTGAATTCCGGTCTCCC
DNA 2: TGGTGGCTACGACGGGATT
B12: ACACUGA (DNA:RNA)
RNA: B5 RNA with G25A, C27A, A28C, G31A
DNA 1: CAATCTGAATTCCGGTCTCCC
DNA 2: TGGTGGCTACGACGGGATT
B13: AUGUAGU (DNA:RNA)
RNA: B1 RNA with U27G, G29A, A30G, A31U
DNA 1: CAATCTGAATTCCGGTCTCCC
DNA 2: TGGTGGCTACGACGGGATT
B14: AUCUUGU (DNA:RNA)
RNA: B1 RNA with U27C, G29U, A30G, A31U
DNA 1: CAATCTGAATTCCGGTCTCCC
DNA 2: TGGTGGCTACGACGGGATT
B15: CAUCAAC (DNA:RNA)
RNA: B1 RNA with A25C, U26A, U28C, G29A, A31C
DNA 1: CAATCTGAATTCCGGTCTCCC
DNA 2: TGGTGGCTACGACGGGATT
B16: UAGCGCG (DNA:RNA)
RNA: B1 RNA with A25U, U26A, U27G, U28C, A30C, A31G
DNA 1: CAATCTGAATTCCGGTCTCCC
DNA 2: TGGTGGCTACGACGGGATT
B17: AGGGAUC (DNA:RNA)
RNA: B1 RNA with U26G, U27G, U28G, G29A, A30U, A31C
DNA 1: CAATCTGAATTCCGGTCTCCC
DNA 2: TGGTGGCTACGACGGGATT
B18: AUAGUUG (DNA:RNA)
RNA: B1 RNA with U27A, U28G, G29U, A30U, A31G
DNA 1: CAATCTGAATTCCGGTCTCCC
DNA 2: TGGTGGCTACGACGGGATT
B19: CCUUGCC (DNA:RNA)
RNA: B1 RNA with A25C, U26C, A30C, A31C
DNA 1: CAATCTGAATTCCGGTCTCCC
DNA 2: TGGTGGCTACGACGGGATT
B20: ACGACCC (DNA:RNA)
RNA: B5 RNA with G25A, C27G, U29C, G30C, G31C
DNA 1: CAATCTGAATTCCGGTCTCCC
DNA 2: TGGTGGCTACGACGGGATT
B21: ACCCAAC (DNA:RNA)
RNA: B1 RNA with U26C, U27C, U28C, G29A, A31C
DNA 1: CAATCTGAATTCCGGTCTCCC
DNA 2: TGGTGGCTACGACGGGATT
B22: CGCUGCG (DNA:RNA)
RNA: B1 RNA with A25C, U26G, U27C, A30C, A31G
DNA 1: CAATCTGAATTCCGGTCTCCC
DNA 2: TGGTGGCTACGACGGGATT
B23: UUAGUAA (DNA:RNA)
RNA: B1 RNA with A25U, U27A, U28G, G29U
DNA 1: CAATCTGAATTCCGGTCTCCC
DNA 2: TGGTGGCTACGACGGGATT
B24: CUGUAUC (DNA:RNA)
RNA: B1 RNA with A25C, U27G, G29A, A30U, A31C
DNA 1: CAATCTGAATTCCGGTCTCCC
DNA 2: TGGTGGCTACGACGGGATT
B25: GAGUAUU (DNA:RNA)
RNA: B1 RNA with A25G, U26A, U27G, G29A, A30U, A31U
DNA 1: CAATCTGAATTCCGGTCTCCC
DNA 2: TGGTGGCTACGACGGGATT
B26: UGAUGAG (DNA:RNA)
RNA: B1 RNA with A25U, U26G, U27A, A31G
DNA 1: CAATCTGAATTCCGGTCTCCC
DNA 2: TGGTGGCTACGACGGGATT
B27: GAGUUAU (DNA:RNA)
RNA: B1 RNA with A25G, U26A, U27G, G29U, A31U
DNA 1: CAATCTGAATTCCGGTCTCCC
DNA 2: TGGTGGCTACGACGGGATT
B28: UGUUAUU (DNA:RNA)
RNA: B1 RNA with A25U, U26G, G29A, A30U, A31U
DNA 1: CAATCTGAATTCCGGTCTCCC
DNA 2: TGGTGGCTACGACGGGATT
B29: CACCACA (DNA:RNA)
RNA: B1 RNA with A25C, U26A, U27C, U28C, G29A, A30C
DNA 1: CAATCTGAATTCCGGTCTCCC
DNA 2: TGGTGGCTACGACGGGATT
B30: UGCACGU (DNA:RNA)
RNA: B5 RNA with G25U, C26G, U29C, G31U
DNA 1: CAATCTGAATTCCGGTCTCCC
DNA 2: TGGTGGCTACGACGGGATT
B31: GAGCGAC (DNA:RNA)
RNA: B1 RNA with A25G, U26A, U27G, U28C, A31C
DNA 1: CAATCTGAATTCCGGTCTCCC
DNA 2: TGGTGGCTACGACGGGATT

Where a chain is given by its changes, count along the chain named. The list shows a part of the results.

The target in the experiment is T1, RBFOX1 RRM RbFoxmut (Fox-RRM*). The experiment in a line: EMSA; HiTS-Eq, 1 nM pool, 10 min; buffer printed only for the single-RNA assays: 10 mM Tris pH 7.5, 150 mM NaCl, 3.4 mM EDTA, 0.001% NP-40, 30 C. The following applies: tags: His6 N-terminal (pET28a); label: 5' 32P. In a few lines:
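A pool of RNA with 7 randomized nucleotides, 5′-radiolabelled and with DNA-annealed flanks, was equilibrated at 1 nM for 10 min in 50 µL with purified RbFox RRM, wild type or mutant, across increasing protein concentrations. Free RNA was separated by 8% native PAGE, excised, reverse-transcribed, barcoded by PCR and sequenced. Relative association constants were obtained from read-count changes of each RNA species versus the control reaction and normalised to the cognate motif.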
With B1, the binding signal was 0.0832 KA relative to UGCAUGU.
In the case of B2, the binding signal is 0.66 KA relative to UGCAUGU.
Regarding B3, the binding signal is 0.0657 KA relative to UGCAUGU.
On to B4, for which the binding signal is 0.0937 KA relative to UGCAUGU.
Regarding B5, the binding signal is 0.12 KA relative to UGCAUGU.
With B6 the figure was 0.0934 KA relative to UGCAUGU; with B7, 0.0976 KA relative to UGCAUGU; with B8, 0.072 KA relative to UGCAUGU.
With B9 the figure was 0.181 KA relative to UGCAUGU; with B10, 0.127 KA relative to UGCAUGU.
In the case of B11, the binding signal was 0.0886 KA relative to UGCAUGU.
As to B12, the binding signal is 0.0748 KA relative to UGCAUGU.
Turning to B13, the binding signal is 0.199 KA relative to UGCAUGU.
As for B14, the binding signal was 0.153 KA relative to UGCAUGU.
As to B15, the binding signal was 0.0636 KA relative to UGCAUGU.
In the case of B16 it was 0.13 KA relative to UGCAUGU.
For the molecule B17, the binding signal was 0.12 KA relative to UGCAUGU.
Regarding B18, the binding signal is 0.174 KA relative to UGCAUGU.
For B19, the binding signal was 0.252 KA relative to UGCAUGU.
Take B20: the binding signal is 0.0588 KA relative to UGCAUGU.
For the molecule B21, the binding signal was 0.0767 KA relative to UGCAUGU.
With B22 the figure was 0.125 KA relative to UGCAUGU; with B23, 0.133 KA relative to UGCAUGU.
In the case of B24 it was 0.362 KA relative to UGCAUGU.
Turning to B25, the binding signal was 0.125 KA relative to UGCAUGU.
In the case of B26 it was 0.12 KA relative to UGCAUGU.
Consider B27, for which the binding signal was 0.116 KA relative to UGCAUGU.
Regarding B28, the binding signal is 0.114 KA relative to UGCAUGU.
Consider B29, for which the binding signal is 0.118 KA relative to UGCAUGU.
With B30, the binding signal was 0.362 KA relative to UGCAUGU.
As to B31, the binding signal is 0.0683 KA relative to UGCAUGU.

Source of the values: article PMC9911399, “Two distinct binding modes provide the RNA-binding protein RbFox with extraordinary sequence specificity”.
